According to the antibiotic and cytotoxicity screens of Wong et al. (2023):
The list shows a part of the results.

Legend:
HSkMC = human skeletal muscle cells; test: cytotoxicity call (relative viability < 0.9); settings: 10 µM
HepG2 = test: cytotoxicity call (relative viability < 0.9); settings: 10 µM
S. aureus RN4220 = test: growth inhibition call (relative growth <= 0.2); settings: 50 µM

CC(=O)Nc1nnc2n1CCS2
cytotoxicity call (HSkMC): inactive
cytotoxicity call (HepG2): inactive
growth inhibition call (S. aureus RN4220): inactive

Cc1noc(C)c1NC(=O)N(C)C[C@H]1OCCCC[C@H](C)Oc2ccc(NS(=O)(=O)c3ccc(Cl)cc3)cc2C(=O)N([C@H](C)CO)C[C@@H]1C
cytotoxicity call (HSkMC): inactive
cytotoxicity call (HepG2): inactive
growth inhibition call (S. aureus RN4220): inactive

COc1ccc(NC(=O)Nc2ccc3c(c2)C(=O)N([C@@H](C)CO)C[C@@H](C)[C@@H](CN(C)C(=O)Nc2cccc4ccccc24)O3)cc1
cytotoxicity call (HSkMC): active
cytotoxicity call (HepG2): inactive
growth inhibition call (S. aureus RN4220): inactive

CCCCc1oc2ccc(NS(C)(=O)=O)cc2c1C(=O)c1ccc(OCCCN(CCCC)CCCC)cc1
cytotoxicity call (HSkMC): active
cytotoxicity call (HepG2): active
growth inhibition call (S. aureus RN4220): active

Cc1ccc(S(=O)(=O)Nc2ccc3c(c2)C(=O)N([C@@H](C)CO)C[C@H](C)[C@@H](CN(C)S(=O)(=O)c2ccccc2)O3)cc1
cytotoxicity call (HSkMC): inactive
cytotoxicity call (HepG2): inactive
growth inhibition call (S. aureus RN4220): inactive

O=C(NCC[C@H]1CC[C@@H](NS(=O)(=O)c2cccc(F)c2)[C@H](CO)O1)C1CC1
cytotoxicity call (HSkMC): inactive
cytotoxicity call (HepG2): inactive
growth inhibition call (S. aureus RN4220): inactive

O=C(C[C@H]1C=C[C@@H](NS(=O)(=O)c2ccc(F)cc2)[C@H](CO)O1)N1CCC(Cc2ccccc2)CC1
cytotoxicity call (HSkMC): inactive
cytotoxicity call (HepG2): inactive
growth inhibition call (S. aureus RN4220): inactive

O=S(=O)(NCC[C@H]1CC[C@@H](NS(=O)(=O)c2ccccc2Cl)[C@@H](CO)O1)c1ccc(Cl)cc1
cytotoxicity call (HSkMC): inactive
cytotoxicity call (HepG2): inactive
growth inhibition call (S. aureus RN4220): inactive

CS(=O)(=O)Nc1ccc2c(c1)[C@@H]1C[C@@H](CC(=O)NCc3ccc(-c4ccccc4)cc3)O[C@H](CO)[C@@H]1O2
cytotoxicity call (HSkMC): inactive
cytotoxicity call (HepG2): inactive
growth inhibition call (S. aureus RN4220): inactive
